Reference: paper PMC4336329 (PLoS ONE, 2015)
In all, about 310,000 compounds went through this assay and about 2,200 (0.71%) showed an effect of 50% or more. Effects have a minus sign here. This is one part of the list.

Each compound was assayed against human ether-à-go-go-related gene (hERG) potassium channel (human, UniProt Q12809) (assay: primary screen, population patch clamp on CHO cells stably expressing hERG).
human ether-à-go-go-related gene (hERG) potassium channel, sequence (Q12809 whole entry, looked up): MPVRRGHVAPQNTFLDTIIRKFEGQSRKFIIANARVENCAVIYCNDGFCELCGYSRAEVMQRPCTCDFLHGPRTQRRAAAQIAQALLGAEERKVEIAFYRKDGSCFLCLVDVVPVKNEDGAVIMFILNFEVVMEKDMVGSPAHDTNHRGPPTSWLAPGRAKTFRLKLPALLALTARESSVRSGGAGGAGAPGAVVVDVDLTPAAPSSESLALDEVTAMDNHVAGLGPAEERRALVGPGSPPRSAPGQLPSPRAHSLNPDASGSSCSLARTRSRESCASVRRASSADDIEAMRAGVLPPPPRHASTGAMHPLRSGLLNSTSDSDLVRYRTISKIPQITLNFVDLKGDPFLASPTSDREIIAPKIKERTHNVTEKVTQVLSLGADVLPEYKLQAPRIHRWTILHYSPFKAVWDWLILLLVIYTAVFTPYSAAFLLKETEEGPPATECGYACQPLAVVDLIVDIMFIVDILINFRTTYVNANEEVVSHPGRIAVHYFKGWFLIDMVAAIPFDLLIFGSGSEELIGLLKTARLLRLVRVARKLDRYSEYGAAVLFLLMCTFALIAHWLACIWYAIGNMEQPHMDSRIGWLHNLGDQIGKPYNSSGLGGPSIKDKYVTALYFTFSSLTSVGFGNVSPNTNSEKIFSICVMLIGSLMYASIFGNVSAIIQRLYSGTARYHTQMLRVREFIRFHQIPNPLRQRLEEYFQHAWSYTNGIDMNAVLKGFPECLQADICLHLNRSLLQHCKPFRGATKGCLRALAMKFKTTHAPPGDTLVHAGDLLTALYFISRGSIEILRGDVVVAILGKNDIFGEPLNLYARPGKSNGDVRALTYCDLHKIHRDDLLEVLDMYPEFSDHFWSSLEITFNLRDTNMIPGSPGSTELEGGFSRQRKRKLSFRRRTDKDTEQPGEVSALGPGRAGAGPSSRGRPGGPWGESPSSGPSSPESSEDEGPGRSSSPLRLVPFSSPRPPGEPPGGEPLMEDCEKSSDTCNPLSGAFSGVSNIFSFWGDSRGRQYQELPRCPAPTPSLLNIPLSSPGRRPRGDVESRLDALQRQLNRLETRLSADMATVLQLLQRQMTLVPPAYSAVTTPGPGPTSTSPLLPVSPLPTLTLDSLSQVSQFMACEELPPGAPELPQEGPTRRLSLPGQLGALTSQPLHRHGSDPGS
With `NCCNC(=O)c1c(NC(=O)c2ccccc2)sc2c1CCCC2` the “hERG current change (%, negative = inhibition) at 1uM” value was 10.9%.
For `CCOc1ccc(C2c3[nH]c4ccccc4c3CCN2CCCn2cccn2)cc1` (stereo not drawn), the “hERG current change (%, negative = inhibition) at 1uM” value was -25.7%.
For `COC(=O)C1C(=O)c2c([nH]c(C(=O)OCC3CCCO3)c2C)CC1C` (stereo not drawn), the “hERG current change (%, negative = inhibition) at 1uM” value was 8.21%.
In the case of `CCN(CC)c1ccc(NC(=O)CCNS(=O)(=O)c2ccc3c(c2)CCC(=O)N3)c(C)c1`, the “hERG current change (%, negative = inhibition) at 1uM” value is reported as 11.8%.
For `COc1cc(CNCCO)ccc1OCC(=O)Nc1ccc(Br)cc1`, the “hERG current change (%, negative = inhibition) at 1uM” value was -5.48%.
With `O=C(c1ccccc1)c1nc2ccccc2n(CCCn2c(=O)c(C(=O)c3ccccc3)nc3ccccc32)c1=O` the “hERG current change (%, negative = inhibition) at 1uM” value was -12.4%.
For `Cc1ccc(CNS(=O)(=O)c2cn(C)c(=O)n(C)c2=O)cc1`, the “hERG current change (%, negative = inhibition) at 1uM” value was -1.66%.
With `CC1(C(=O)N(Cc2ccccc2)Cc2ccccc2)CC1(Br)Br` (stereo not drawn) the “hERG current change (%, negative = inhibition) at 1uM” value was 6.77%.
In the case of `c1ccc(CNc2nc(-c3cccnc3)cs2)cc1`, the “hERG current change (%, negative = inhibition) at 1uM” value is reported as -5.72%.
For `OCCC1CN(Cc2nc3ccccc3[nH]2)CCN1C1CCCC1` (stereo not drawn), the “hERG current change (%, negative = inhibition) at 1uM” value was 13.8%.
With `Cn1nnnc1SCC(=O)Nc1ccc(Cl)c(S(=O)(=O)N2CCOCC2)c1` the “hERG current change (%, negative = inhibition) at 1uM” value was 8.74%.
For `Cc1ccc(C)c2[nH]c(=O)c(CCNC(=O)CCc3ccccc3)cc12`, the “hERG current change (%, negative = inhibition) at 1uM” value was 11.9%.
`Cc1nc(N)nc(C)c1Cc1ccccc1` was tested, and the “hERG current change (%, negative = inhibition) at 1uM” value was 9.3%.
`Cc1ccccc1Cn1cnc2ccccc2c1=O` was tested, and the “hERG current change (%, negative = inhibition) at 1uM” value was -3.15%.
With `CN1CCN(c2ccc(NC(=O)c3ccc(Br)o3)cc2)CC1` the “hERG current change (%, negative = inhibition) at 1uM” value was 16.2%.
`NNc1nc2cccnc2n(CCNc2ncc(C(F)(F)F)cc2Cl)c1=O` was tested, and the “hERG current change (%, negative = inhibition) at 1uM” value was 14.2%.
In the case of `CCOC(=O)C(NCc1ccccn1)(NC(=O)c1cccnc1)C(F)(F)F` (stereo not drawn), the “hERG current change (%, negative = inhibition) at 1uM” value is reported as 1.35%.
In the case of `COc1cccc(C2C(C#N)=C(N)OC3=C2C(=O)CCC3)c1OC(=O)c1ccco1` (stereo not drawn), the “hERG current change (%, negative = inhibition) at 1uM” value is reported as 6.66%.
For `Fc1cccc(CNc2ncnc3ccc(-c4ccc5c(c4)OCO5)cc23)c1`, the “hERG current change (%, negative = inhibition) at 1uM” value was 5.14%.
For `CC(=O)c1cccc(NC(=S)N2CCN(c3ccccn3)CC2)c1`, the “hERG current change (%, negative = inhibition) at 1uM” value was 7.51%.
`Cc1cccc(-c2noc(CCCC(=O)NCC3CCCO3)n2)c1` (stereo not drawn) was tested, and the “hERG current change (%, negative = inhibition) at 1uM” value was 12.4%.
For `COc1ccc(OC(=O)c2ccc(Cl)cc2)c(C(C)=O)c1`, the “hERG current change (%, negative = inhibition) at 1uM” value was 11.6%.
`N=C1C(c2ccccc2)=C(O)CN1c1cccc(S(=O)(=O)NCc2ccco2)c1` was tested, and the “hERG current change (%, negative = inhibition) at 1uM” value was 2.3%.
`CCOC(=O)c1c(CNCCN(CC)CC)n(C)c2cc(Br)c(OC)cc12.Cl` was tested, and the “hERG current change (%, negative = inhibition) at 1uM” value was -49.8%.
